# Experimental data taken from PubChem BioAssay (Tox21).
# The inconclusive results got no clear call from the source; some entries with a clear call stand among them for comparison. Where the call is inconclusive, the potency comes from a doubtful curve fit. Calls of active or inactive are those of the source. The call rests on the fitted dose curve; in most records, active means well fitted curve in the direction sought with a large enough effect in the repeat runs; inconclusive means weak or mixed curves; inactive means no such curve, though single readings can be large; an effect the other way counts as inactive or inconclusive.
# Molecular target: Cytochrome P450 1A2 (Homo sapiens) (UniProt P05177)
# Sequence of UniProt P05177 (P05177 whole entry, looked up): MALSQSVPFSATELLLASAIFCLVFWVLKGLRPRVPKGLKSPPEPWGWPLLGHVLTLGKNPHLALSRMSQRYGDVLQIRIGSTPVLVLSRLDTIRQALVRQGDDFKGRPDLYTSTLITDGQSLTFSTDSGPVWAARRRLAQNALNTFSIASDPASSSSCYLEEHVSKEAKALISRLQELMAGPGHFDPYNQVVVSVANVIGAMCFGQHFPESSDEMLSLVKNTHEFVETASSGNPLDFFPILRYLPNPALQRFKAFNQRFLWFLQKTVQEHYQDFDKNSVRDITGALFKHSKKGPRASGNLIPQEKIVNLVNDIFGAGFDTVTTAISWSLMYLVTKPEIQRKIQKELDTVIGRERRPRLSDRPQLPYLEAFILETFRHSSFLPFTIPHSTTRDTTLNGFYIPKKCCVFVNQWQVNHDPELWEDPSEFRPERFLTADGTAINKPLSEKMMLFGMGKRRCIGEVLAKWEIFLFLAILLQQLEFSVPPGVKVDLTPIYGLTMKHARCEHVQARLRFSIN
# Assay: Cytochrome P450 Family 1 Subfamily A Member 2 (CYP1A2) small molecule antagonists: luciferase reporter qHTS assay (AID 1671199)
# Settings: P450-Glo CYP1A2 enzyme, luciferin luminescence, 1 h; series mostly up to 115 µM
# Outline: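 Human CYP1A2 activity measured with a P450-Glo proluciferin substrate; compounds in DMSO preincubated 10 min at room temperature with enzyme-substrate mix, then NADPH regeneration system added for 1 h. Luciferin detection reagent, 20 min, luminescence read.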
# Further: nearly all actives have a fitted effect of over 50% in size.
# Potency means the concentration at half of the fitted maximal effect; tags describe the fitted curve by direction and shape.
row,Structure (SMILES),Potency
1,C=CCCC,inactive
2,Cc1ccc(C(C)NC(=O)[C@@H](NC(=O)OC(C)C)C(C)C)cc1 (stereo partly specified),"inconclusive: 35.5 µM [inhibitor, partial curve]"
3,CC(=O)NCCCS(=O)(=O)O,"inconclusive: 24.4 µM [inhibitor, partial curve, poor fit]"
4,CCCCCCC(=O)OCC,inactive
5,Cc1onc(-c2ccccc2)c1C(=O)Cl,inactive
6,CC1=CCC(C(C)C)C=C1 (stereo unspecified),inconclusive: 71 µM [inhibitor]
7,COC(OC)C(C)c1ccccc1 (stereo unspecified),"inconclusive: 79.6 µM [inhibitor, partial curve, poor fit]"
8,CSc1ccc(C=O)cc1,"inconclusive: 79.4 µM [inhibitor, single point]"
9,CC(C)(CO)C(O)C(=O)NCCCO (stereo unspecified),"inconclusive: 44.8 µM [inhibitor, partial curve]"
10,CO/N=C(/C(=O)N[C@@H]1C(=O)N2C(C(=O)O)=C(Cn3nnc(C)n3)CS[C@H]12)c1csc(N)n1,inactive
11,O=[N+]([O-])c1ccc(CCO)cc1,"inconclusive: 79.8 µM [inhibitor, partial curve, poor fit]"
12,OC[C@@H](O)[C@H](O)[C@@H](O)[C@@H](O)CO,"inconclusive: 39.9 µM [inhibitor, partial curve]"
13,C[C@@H](c1ncncc1F)C(O)(Cn1cncn1)c1ccc(F)cc1F (stereo partly specified),"inconclusive: 24.5 µM [inhibitor, partial curve]"
14,Cn1cnc2c(F)c(Nc3ccc(Br)cc3Cl)c(C(=O)NOCCO)cc21,"inconclusive: 14.4 µM [inhibitor, partial curve]"
15,N#CCc1cccc(C(F)(F)F)c1,"inconclusive: 39.9 µM [inhibitor, partial curve, poor fit]"
16,CCC(C)N (stereo unspecified),inactive
17,c1ccc2c(CC3=NCCN3)cccc2c1,inactive
18,COc1cc(Cl)ccc1Oc1ccc(Cl)cc1Cl,active: 12.3 µM
19,CC(C)COC(=O)c1ccccc1,inconclusive: 39.9 µM [inhibitor]
20,CCCCCCCCCCCCCCCCC(=O)O,inactive
21,CC[N+]1(CC)CCC(=C(c2ccccc2)c2ccccc2)C1C (stereo unspecified),inactive
22,CC/C=C/CCCCCCCCCCOC(C)=O,"inconclusive: 17.8 µM [inhibitor, full curve]"
23,CCCOCC(C)O (stereo unspecified),inconclusive: 71 µM [inhibitor]
24,COc1ccnc2c1CCCCC2S(=O)c1nc2ccccc2[nH]1 (stereo unspecified),active: 13.8 µM

# Molecular target: Voltage-gated inwardly rectifying potassium channel KCNH2 (Homo sapiens) (UniProt Q12809)
# Sequence of UniProt Q12809 (Q12809 whole entry, looked up): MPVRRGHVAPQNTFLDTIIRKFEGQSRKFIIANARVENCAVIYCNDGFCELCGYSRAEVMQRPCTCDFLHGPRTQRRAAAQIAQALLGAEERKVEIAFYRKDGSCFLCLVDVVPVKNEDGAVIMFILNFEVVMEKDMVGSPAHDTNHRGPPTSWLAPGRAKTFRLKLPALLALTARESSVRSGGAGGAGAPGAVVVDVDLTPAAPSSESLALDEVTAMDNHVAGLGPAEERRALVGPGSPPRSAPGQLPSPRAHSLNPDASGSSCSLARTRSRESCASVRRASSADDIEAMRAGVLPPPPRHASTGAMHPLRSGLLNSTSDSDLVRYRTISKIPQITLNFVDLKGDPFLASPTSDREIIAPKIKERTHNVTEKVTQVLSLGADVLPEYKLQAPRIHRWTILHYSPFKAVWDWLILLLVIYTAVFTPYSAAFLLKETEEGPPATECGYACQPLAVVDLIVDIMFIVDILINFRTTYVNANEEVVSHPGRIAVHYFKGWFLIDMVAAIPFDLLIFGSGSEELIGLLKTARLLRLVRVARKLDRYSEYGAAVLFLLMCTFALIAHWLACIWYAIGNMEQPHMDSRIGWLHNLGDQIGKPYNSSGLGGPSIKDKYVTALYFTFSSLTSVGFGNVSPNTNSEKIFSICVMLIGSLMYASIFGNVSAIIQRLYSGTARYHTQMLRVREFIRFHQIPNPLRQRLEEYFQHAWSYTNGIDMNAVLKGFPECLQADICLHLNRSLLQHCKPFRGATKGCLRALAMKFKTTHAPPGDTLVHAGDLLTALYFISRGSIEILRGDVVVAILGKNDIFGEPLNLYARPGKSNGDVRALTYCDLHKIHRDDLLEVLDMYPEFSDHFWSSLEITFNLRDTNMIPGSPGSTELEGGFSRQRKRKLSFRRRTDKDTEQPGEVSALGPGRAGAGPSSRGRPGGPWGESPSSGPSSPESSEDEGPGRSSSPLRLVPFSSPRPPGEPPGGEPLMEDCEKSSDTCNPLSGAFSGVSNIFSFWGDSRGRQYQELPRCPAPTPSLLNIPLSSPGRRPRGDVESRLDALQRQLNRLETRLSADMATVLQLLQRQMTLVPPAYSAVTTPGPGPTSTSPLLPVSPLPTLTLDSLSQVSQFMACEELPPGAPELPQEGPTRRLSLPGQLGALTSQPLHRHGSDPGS
# Assay: Human Ether-a-go-go-Related Gene (hERG) channel small molecule antagonists: fluorescence cell-based qHTS assay (AID 1671200)
# Settings: hERG-U2OS cells, FluxOR thallium flux fluorescence; series mostly up to 76.8 µM
# Outline: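 Cell line hERG-U2OS; dye FluxOR II, 1 h RT dark; Tl+ stimulus; ex 480/em 540 nm, read each second for 2 min.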
row,Structure (SMILES),Potency
1,c1cc[nH]c1,inactive
2,CC(=O)NCCCS(=O)(=O)O,inactive
3,CCCOCCOCCO,inactive
4,COC(=O)[C@@H]1[C@H]2C[C@H]3c4[nH]c5ccccc5c4CCN3C[C@@H]2CC[C@@H]1O,"inconclusive: 23.9 µM [inhibitor, partial curve]"
5,CC(C)(CO)C(O)C(=O)NCCCO (stereo unspecified),inactive
6,O=[N+]([O-])c1ccc(CCO)cc1,"inconclusive: 43.7 µM [inhibitor, partial curve]"
7,CCCCCCCC(=O)OCC,inactive
8,CCN(CC)CC1CCCCN1CC(=O)N1c2ccccc2C(=O)Nc2cccnc21 (stereo unspecified),"inconclusive: 15.1 µM [inhibitor, partial curve]"
9,Cn1cnc2c(F)c(Nc3ccc(Br)cc3Cl)c(C(=O)NOCCO)cc21,inactive
10,CC(C)C(=O)OCc1cccc(OC(=O)[C@@H]2N3C(=O)[C@@H](NC(=O)Cc4ccccc4)[C@H]3SC2(C)C)c1,"inconclusive: 23.9 µM [inhibitor, partial curve, poor fit]"
11,c1ccc2c(CC3=NCCN3)cccc2c1,inactive
12,CC[N+]1(CC)CCC(=C(c2ccccc2)c2ccccc2)C1C (stereo unspecified),"inconclusive: 16.9 µM [inhibitor, partial curve]"

# Molecular target: Cytochrome P450 3A4 (Homo sapiens) (UniProt P08684)
# Sequence of UniProt P08684 (P08684 whole entry, looked up): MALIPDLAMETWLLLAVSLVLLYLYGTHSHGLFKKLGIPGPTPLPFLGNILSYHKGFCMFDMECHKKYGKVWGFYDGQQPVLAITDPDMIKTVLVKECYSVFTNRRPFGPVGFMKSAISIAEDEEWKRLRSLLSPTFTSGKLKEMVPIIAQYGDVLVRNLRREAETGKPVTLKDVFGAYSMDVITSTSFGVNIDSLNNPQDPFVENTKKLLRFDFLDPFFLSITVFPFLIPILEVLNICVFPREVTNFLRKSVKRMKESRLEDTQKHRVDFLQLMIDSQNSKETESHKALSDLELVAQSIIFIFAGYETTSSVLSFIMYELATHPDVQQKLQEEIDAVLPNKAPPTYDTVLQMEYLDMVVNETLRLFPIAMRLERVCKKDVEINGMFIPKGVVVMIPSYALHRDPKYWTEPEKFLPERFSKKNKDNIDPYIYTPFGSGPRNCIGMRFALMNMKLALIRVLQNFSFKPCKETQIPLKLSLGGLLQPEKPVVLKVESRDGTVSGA
# Assay: Cytochrome P450 Family 3 Subfamily A Member 4 (CYP3A4) small molecule antagonists: luciferase reporter qHTS assay (AID 1671201)
# Settings: P450-Glo CYP3A4 enzyme, luciferin luminescence, 1 h; series mostly up to 115 µM
# Outline: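 Room-temperature assay throughout: 10 min compound–enzyme/substrate preincubation, 1 h reaction after NADPH regeneration solution, 20 min detection. Luciferin formed from proluciferin substrate is quantified by luminescence.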
row,Structure (SMILES),Potency
1,Cc1ccc(C(C)C)cc1O,"inconclusive: 63.3 µM [inhibitor, partial curve]"
2,C=CCCC,inactive
3,CC(C)CCCCOC(=O)c1ccccc1C(=O)OCCCCC(C)C,"inconclusive: 5.65 µM [inhibitor, full curve]"
4,O=[N+]([O-])c1ccc(CCO)cc1,inactive
5,CCCCOC(=O)c1ccccc1C(=O)OCC(CC)CCCC (stereo unspecified),"inconclusive: 7.97 µM [inhibitor, full curve]"
6,C=C(C)C(=O)OC1CC(C)CC(C)(C)C1 (stereo unspecified),inactive
7,CCN(CC)CC1CCCCN1CC(=O)N1c2ccccc2C(=O)Nc2cccnc21 (stereo unspecified),active: 6.92 µM
8,CC(C)C(=O)OCc1cccc(OC(=O)[C@@H]2N3C(=O)[C@@H](NC(=O)Cc4ccccc4)[C@H]3SC2(C)C)c1,"inconclusive: 15.5 µM [inhibitor, partial curve]"
9,N#CCc1cccc(C(F)(F)F)c1,inactive
10,CCCCCCCOC(=O)c1ccccc1C(=O)OCCCCCCC,"inconclusive: 5.64 µM [inhibitor, full curve]"
11,COc1cc(Cl)ccc1Oc1ccc(Cl)cc1Cl,"inconclusive: 54.8 µM [inhibitor, partial curve]"
12,Nc1c[n+](N2CCOCC2)no1,inactive
13,CCCCOc1ccc(N)cc1,"inconclusive: 31.7 µM [inhibitor, partial curve]"
14,CC1(C)[C@H]2CC[C@]1(C)[C@H](O)C2,inactive
15,CC(C)CC=O,"inconclusive: 28.3 µM [inhibitor, partial curve]"
